The record followed here is article PMC4081100.

The list shows a part of the results, in another mix than the full data. For part of these data: At the low end of the ranking the order means little. The list shows a part of the results. For part of these data: Construct or isoform of the protein are uncertain.

Common to all, as to assay: universal protein binding microarray (PBM)
Holding throughout (conditions): transcription factors of Arabidopsis thaliana; high values mean tight binding; most listed sequences are background and not binding sites; double strand, one strand shown

The target in one experiment is T1, GST-ANAC092(1-176) (UniProt Q9FKA0).
T1 sequence: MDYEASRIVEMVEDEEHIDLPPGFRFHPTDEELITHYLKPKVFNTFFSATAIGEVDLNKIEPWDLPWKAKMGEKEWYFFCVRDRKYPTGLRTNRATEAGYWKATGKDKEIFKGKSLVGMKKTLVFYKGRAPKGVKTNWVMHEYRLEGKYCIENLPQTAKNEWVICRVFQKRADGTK

For a further experiment, the target named is GST-NTL6(1-168) (UniProt Q9SCK6).
Another experiment has as its target T2, GST-ANAC019 NAC domain (UniProt Q9C932).
T2 sequence: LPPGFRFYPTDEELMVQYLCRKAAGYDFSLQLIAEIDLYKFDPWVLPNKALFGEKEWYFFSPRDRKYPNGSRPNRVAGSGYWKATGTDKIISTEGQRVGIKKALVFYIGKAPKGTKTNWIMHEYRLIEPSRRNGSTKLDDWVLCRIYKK

The target in the next experiment is T3, GST-ANAC055(1-171) (UniProt Q9LDY8).
T3 sequence: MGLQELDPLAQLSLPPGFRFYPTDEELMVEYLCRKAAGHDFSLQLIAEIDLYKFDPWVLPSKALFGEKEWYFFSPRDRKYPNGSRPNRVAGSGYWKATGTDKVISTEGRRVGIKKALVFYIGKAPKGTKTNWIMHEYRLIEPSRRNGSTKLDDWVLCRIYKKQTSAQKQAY

The target of another experiment is T4, GST-ATAF1 NAC domain (UniProt Q39013).
T4 sequence: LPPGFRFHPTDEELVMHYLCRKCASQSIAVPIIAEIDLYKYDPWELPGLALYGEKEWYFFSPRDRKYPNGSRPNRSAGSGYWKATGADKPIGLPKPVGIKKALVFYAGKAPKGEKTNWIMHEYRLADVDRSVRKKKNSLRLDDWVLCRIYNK

Experiment [1] addresses T5, GST-ANAC092(1-285) full length (UniProt Q9FKA0).
T5 sequence: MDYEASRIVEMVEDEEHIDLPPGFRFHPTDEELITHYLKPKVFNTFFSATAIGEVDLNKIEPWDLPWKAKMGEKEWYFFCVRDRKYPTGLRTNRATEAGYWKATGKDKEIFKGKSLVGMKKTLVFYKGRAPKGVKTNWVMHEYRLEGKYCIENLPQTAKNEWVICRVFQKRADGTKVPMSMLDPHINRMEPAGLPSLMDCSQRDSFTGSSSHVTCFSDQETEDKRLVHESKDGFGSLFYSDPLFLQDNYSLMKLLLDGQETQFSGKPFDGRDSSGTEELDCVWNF

Another experiment addresses T6, GST-NAP(1-166) (UniProt O49255).
T6 sequence: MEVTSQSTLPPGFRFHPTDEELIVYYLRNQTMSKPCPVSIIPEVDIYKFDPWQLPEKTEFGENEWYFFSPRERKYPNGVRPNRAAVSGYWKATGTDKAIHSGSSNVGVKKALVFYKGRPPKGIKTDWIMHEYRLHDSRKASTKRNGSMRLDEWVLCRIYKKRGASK

The next experiment addresses T7, GST-NST2(1-184) (UniProt Q9M274).
T7 sequence: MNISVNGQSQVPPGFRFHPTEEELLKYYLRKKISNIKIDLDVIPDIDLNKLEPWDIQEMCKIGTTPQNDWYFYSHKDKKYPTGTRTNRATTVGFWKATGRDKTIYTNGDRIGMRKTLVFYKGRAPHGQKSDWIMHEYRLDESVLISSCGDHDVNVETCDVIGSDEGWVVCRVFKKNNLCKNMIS

In another experiment the target is T8, GST-NTL8 NAC domain (UniProt Q9XIN7).
T8 sequence: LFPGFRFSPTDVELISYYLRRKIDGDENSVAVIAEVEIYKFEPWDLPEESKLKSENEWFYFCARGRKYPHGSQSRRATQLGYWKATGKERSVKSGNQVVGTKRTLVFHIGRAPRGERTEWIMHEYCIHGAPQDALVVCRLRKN

Another experiment addresses T9, GST-SND1(1-203) (UniProt Q9LPI7).
T9 sequence: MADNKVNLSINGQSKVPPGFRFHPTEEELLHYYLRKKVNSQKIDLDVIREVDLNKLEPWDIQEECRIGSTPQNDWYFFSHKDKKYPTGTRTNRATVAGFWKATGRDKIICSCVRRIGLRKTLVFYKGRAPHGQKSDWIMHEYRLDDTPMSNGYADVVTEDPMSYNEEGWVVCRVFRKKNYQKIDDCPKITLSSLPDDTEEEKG

For a further experiment, the target named is T10, GST-VND3 NAC domain (UniProt Q9FH59).
T10 sequence: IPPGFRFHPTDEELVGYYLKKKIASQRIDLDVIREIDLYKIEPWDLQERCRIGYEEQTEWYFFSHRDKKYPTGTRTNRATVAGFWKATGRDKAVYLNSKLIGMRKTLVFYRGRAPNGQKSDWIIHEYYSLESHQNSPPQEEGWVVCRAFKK

For a further experiment, the target named is T11, GST-VND7 NAC domain (UniProt Q9C8W9).
T11 sequence: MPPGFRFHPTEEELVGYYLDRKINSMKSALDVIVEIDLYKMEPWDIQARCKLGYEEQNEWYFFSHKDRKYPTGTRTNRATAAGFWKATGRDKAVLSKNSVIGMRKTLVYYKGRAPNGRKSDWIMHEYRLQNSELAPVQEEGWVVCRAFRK

Experiment [2] deals with T12, GST-VOZ2 (Arabidopsis thaliana) (UniProt Q9SLB9).
T12 sequence: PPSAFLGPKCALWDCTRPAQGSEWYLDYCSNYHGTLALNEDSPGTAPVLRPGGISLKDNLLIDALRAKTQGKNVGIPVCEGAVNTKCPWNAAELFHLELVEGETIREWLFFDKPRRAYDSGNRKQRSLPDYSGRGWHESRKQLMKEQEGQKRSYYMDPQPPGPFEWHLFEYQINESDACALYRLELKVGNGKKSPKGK

Consider AGTCGTCG, for which the binding signal in the experiment with GST-ANAC092(1-176) was -0.113 E-score; with GST-NTL6(1-168), -0.155 E-score; with GST-ANAC019 NAC domain it was -0.0479 E-score; with GST-ANAC055(1-171), -0.113 E-score; with GST-ATAF1 NAC domain, -0.16 E-score; in experiment [1], -0.255 E-score. The binding signal was 0.119 E-score with GST-NAP(1-166); -0.0379 E-score in the experiment with GST-NST2(1-184); -0.0601 E-score in the experiment with GST-NTL8 NAC domain; -0.214 E-score with GST-SND1(1-203); -0.148 E-score with GST-VND3 NAC domain; -0.0928 E-score with GST-VND7 NAC domain. This sequence displayed a binding signal in experiment [2] of -0.197 E-score.
As to GGTCAGCA, the binding signal with GST-ANAC092(1-176) was -0.131 E-score; with GST-NTL6(1-168), -0.176 E-score; with GST-ANAC019 NAC domain, -0.136 E-score; with GST-ANAC055(1-171) it was -0.194 E-score; in the experiment with GST-ATAF1 NAC domain it was -0.191 E-score; in experiment [1] it was -0.199 E-score. Besides, the binding signal was -0.0255 E-score in the experiment with GST-NAP(1-166); -0.0501 E-score with GST-NST2(1-184); -0.065 E-score with GST-NTL8 NAC domain; -0.07 E-score with GST-SND1(1-203); -0.0914 E-score in the experiment with GST-VND3 NAC domain; -0.192 E-score in the experiment with GST-VND7 NAC domain. In experiment [2], this sequence displayed a binding signal of -0.132 E-score.
With CTGACTTA, the binding signal in the experiment with GST-ANAC092(1-176) is -0.0863 E-score; in the experiment with GST-NTL6(1-168), 0.195 E-score; with GST-ANAC019 NAC domain, -0.0879 E-score; in the experiment with GST-ANAC055(1-171), -0.0487 E-score; with GST-ATAF1 NAC domain, -0.163 E-score; in experiment [1], -0.0235 E-score. Further, the binding signal was -0.0554 E-score with GST-NAP(1-166); 0.0499 E-score with GST-NST2(1-184); -0.121 E-score with GST-NTL8 NAC domain; -0.0138 E-score with GST-SND1(1-203); -0.0115 E-score with GST-VND3 NAC domain; -0.097 E-score with GST-VND7 NAC domain. Also, in [2], the binding signal is -0.12 E-score.
AAGACCGG: the binding signal was -0.0491 E-score with GST-ANAC092(1-176); -0.0999 E-score with GST-NTL6(1-168); -0.0805 E-score with GST-ANAC019 NAC domain; -0.123 E-score with GST-ANAC055(1-171); -0.179 E-score in the experiment with GST-ATAF1 NAC domain; -0.214 E-score in experiment [1]. Also, the binding signal with GST-NAP(1-166) was 0.0296 E-score; in the experiment with GST-NST2(1-184), -0.132 E-score; with GST-NTL8 NAC domain, -0.0331 E-score; in the experiment with GST-SND1(1-203), -0.15 E-score; with GST-VND3 NAC domain it was -0.1 E-score; in the experiment with GST-VND7 NAC domain it was -0.0926 E-score. The sequence also registered a binding signal in experiment [2] of -0.0926 E-score.
On to TGACCGCA, for which the binding signal in the experiment with GST-ANAC092(1-176) is -0.13 E-score; with GST-NTL6(1-168), -0.21 E-score; with GST-ANAC019 NAC domain, -0.133 E-score; with GST-ANAC055(1-171), -0.225 E-score; in the experiment with GST-ATAF1 NAC domain, -0.153 E-score; in experiment [1] it was -0.0592 E-score. The binding signal with GST-NAP(1-166) was -0.141 E-score; in the experiment with GST-NST2(1-184), -0.0348 E-score; in the experiment with GST-NTL8 NAC domain, -0.099 E-score; with GST-SND1(1-203), -0.0873 E-score; in the experiment with GST-VND3 NAC domain, -0.236 E-score; with GST-VND7 NAC domain it was -0.199 E-score. The sequence further yielded a binding signal in [2] of 0.0984 E-score.
Consider GTCTTTGA, for which the binding signal is -0.012 E-score in the experiment with GST-ANAC092(1-176); -0.0485 E-score with GST-NTL6(1-168); 0.00829 E-score with GST-ANAC019 NAC domain; -0.0616 E-score in the experiment with GST-ANAC055(1-171); -0.0642 E-score with GST-ATAF1 NAC domain; -0.0116 E-score in experiment [1]. For the same sequence, the binding signal with GST-NAP(1-166) is -0.00479 E-score; in the experiment with GST-NST2(1-184), 0.0282 E-score; in the experiment with GST-NTL8 NAC domain it was -0.0197 E-score; with GST-SND1(1-203), -0.0811 E-score; in the experiment with GST-VND3 NAC domain, -0.0713 E-score; with GST-VND7 NAC domain, 0.00671 E-score. The same sequence yielded a binding signal in experiment [2] of -0.16 E-score.
As for GGGTTGAC, the binding signal in the experiment with GST-ANAC092(1-176) is -0.00487 E-score; with GST-NTL6(1-168) it was -0.0741 E-score; with GST-ANAC019 NAC domain, 0.0444 E-score; in the experiment with GST-ANAC055(1-171) it was -0.185 E-score; with GST-ATAF1 NAC domain it was -0.0694 E-score; in [1] it was -0.0267 E-score. In addition, the binding signal was 0.0845 E-score with GST-NAP(1-166); -0.151 E-score in the experiment with GST-NST2(1-184); -0.0132 E-score with GST-NTL8 NAC domain; 0.00434 E-score in the experiment with GST-SND1(1-203); -0.135 E-score with GST-VND3 NAC domain; -0.112 E-score with GST-VND7 NAC domain. Moreover, the binding signal in experiment [2] stood at 0.117 E-score.
As for CCGTCAAC, the binding signal in the experiment with GST-ANAC092(1-176) was -0.0273 E-score; with GST-NTL6(1-168), -0.117 E-score; with GST-ANAC019 NAC domain, 0.0816 E-score; with GST-ANAC055(1-171) it was -0.0299 E-score; in the experiment with GST-ATAF1 NAC domain it was 0.0117 E-score; in experiment [1], -0.106 E-score. Besides, the binding signal in the experiment with GST-NAP(1-166) is 0.0218 E-score; in the experiment with GST-NST2(1-184) it was -0.155 E-score; with GST-NTL8 NAC domain it was -0.146 E-score; with GST-SND1(1-203), -0.0269 E-score; with GST-VND3 NAC domain, -0.0797 E-score; with GST-VND7 NAC domain it was -0.0789 E-score. For the same sequence, in [2], the binding signal amounted to 0.0288 E-score.
Take AGCGGTCA: the binding signal was -0.112 E-score in the experiment with GST-ANAC092(1-176); -0.105 E-score with GST-NTL6(1-168); -0.0478 E-score with GST-ANAC019 NAC domain; -0.15 E-score in the experiment with GST-ANAC055(1-171); -0.177 E-score in the experiment with GST-ATAF1 NAC domain; -0.143 E-score in experiment [1]. Further, the binding signal with GST-NAP(1-166) was -0.163 E-score; with GST-NST2(1-184), -0.0737 E-score; with GST-NTL8 NAC domain, -0.0464 E-score; with GST-SND1(1-203), -0.175 E-score; with GST-VND3 NAC domain, -0.0439 E-score; with GST-VND7 NAC domain it was -0.18 E-score. The sequence further gave a binding signal in experiment [2] of -0.0895 E-score.
